According to PubChem BioAssay AID493208 (National Center for Advancing Translational Sciences (NCATS), 2011):
Hit rate of the full screen: of about 44,000 compounds, about 340 (0.77%) were called active. About 5% were inconclusive and are not listed. Calls follow the shape of the dose curve; as a rule, active = well fitted inhibition curve with a large enough effect; inconclusive = small, poorly fitted or top-dose-only effect; inactive = flat fitted curve, though single readings scatter. The list shows a part of the results.

assay: Acumen qHTS Assay for Inhibitors of the mTORC1 Signaling Pathway in MEF (Tsc2-/-, p53-/-) Cells: Sytravon; details: phospho-rpS6 immunofluorescence/PI, 24 h; series mostly up to 38.3 µM; activity change, negative = inhibition: at the top concentration; also: nearly all actives have a fitted effect of over 50% in size;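 as to activity change, negative = inhibition: plate controls were DMSO for no effect and rapamycin for full effect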
How it was run: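 Compounds act on Tsc2-/-, p53-/- fibroblasts carrying an empty vector for 24 h before fixation and dual staining for phospho-S6 and DNA (propidium iodide). Values are percentages of cells above a rapamycin-defined pS6/PI threshold.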
Potency is read from the fitted curve at half-maximal effect.

Compound	activity change, negative = inhibition	Potency
Cc1nn(C)c2c1c(C(F)(F)F)cc(=O)n2CC(=O)N1CCN(c2ccccc2F)CC1	inactive: -13.4%	
CC(=O)N1CCc2c(sc3c2c(=O)n(-c2cccc(Cl)c2)c(=O)n3Cc2ccc(F)cc2Cl)C1	inactive: -1.2%	
CCOC(=O)c1c(NC(=O)/C=C/c2ccc(OCC)cc2)sc2c1CCCC2	inactive: -0.587%	
O=C(NCc1ccc2c(c1)CCN2C(=O)c1ccc(Cl)cc1)c1ccco1	inactive: -4.31%	
O=C(Cn1c(=O)n(-c2ccccc2)c(=O)c2c3c(sc21)CCCC3)Nc1ccccc1	inactive: -5.74%	
Cc1cc(-c2ccc(C)c(S(=O)(=O)N3c4ccccc4CC3C)c2)on1 (stereo unspecified)	inactive: 0.826%	
O=C(O)CSc1nnc(-c2ccc(O)cc2)o1	inactive: 0.307%	
CCOC(=O)c1noc2nc(C)n(CC(=O)Nc3ccc(OC)c(Cl)c3)c(=O)c12	inactive: -1.4%	
Cc1cc(N2CCC(C(=O)Nc3ccc(Cl)cc3)CC2)n2nc(C)c(-c3ccc(Cl)cc3)c2n1	inactive: -4.89%	
Cc1ccc(CC(=O)Nc2c(C(=O)N3CCN(c4ccccc4)CC3)oc3ccccc23)cc1	inactive: 0.734%	
CCOC(=O)CSc1nnc2n(-c3ccccc3)c(=O)c3c4c(sc3n12)COC(C(C)C)C4 (stereo unspecified)	inactive: -15%	
CCCCN(CC)CCNC(=O)C1CCN(c2nnc(C)c3c(C)n(-c4ccc(C)cc4)nc23)CC1		active: 14.7 µM
CCc1c(C)nc2nncn2c1NCc1ccc(OC)cc1	inactive: -7.21%	
Cc1cc2c(cc3c(=O)n(CC(=O)NCc4ccccc4Br)ncn32)s1	inactive: -3.53%	
Cc1ccc(Cc2c(C)nc3c(-c4ccccc4)c(C)[nH]n3c2=O)cc1	inactive: 1.75%	
Cc1ccc(-n2nc(C)c3c(C(=O)O)cc(C)nc32)cc1	inactive: -7.8%	
Cc1cccc(C)c1OCCn1c(C2CC(=O)N(Cc3ccc(F)cc3)C2)nc2ccccc21 (stereo unspecified)	inactive: -0.192%	
CC(CNC(=O)c1ccc2c(c1)nc1n2CCOC1)c1ccccc1 (stereo unspecified)	inactive: 9.37%	
O=C(CCS(=O)(=O)c1cccc2nonc12)Nc1cccc(F)c1	inactive: 3.31%	
CC(C)NC(=O)CSc1nc2ccccc2c(=O)n1Cc1ccc(C(=O)NC(C)C)cc1	inactive: 8.97%	
O=C(CSc1nc(=O)[nH]c2c1CCC2)NCc1ccc(Cl)cc1	inactive: 1.35%	
Cc1cccc(CSc2nc3cccnc3n2Cc2ccc(C(=O)NCc3ccco3)cc2)c1	inactive: 1.94%	
COc1ccc(CN(Cc2ccco2)c2cnc(S(C)(=O)=O)nc2C(=O)Nc2ccc(C)c(C)c2)cc1	inactive: -2.35%	

Compound	activity change, negative = inhibition	Potency
COC(=O)c1ccc(C(=O)Nc2ccc(-c3nc4cc(NC(=O)c5ccc(C(=O)OC)cc5)ccc4o3)cc2)cc1	inactive: 9.51%	
CCSc1ncc(Cl)c(C(=O)Nc2ccc(S(=O)(=O)Nc3nccc(C)n3)cc2)n1	inactive: 0.0842%	
O=C(CCC1N=C2c3ccccc3N=C(SCc3ccccc3Cl)N2C1=O)N1CCN(c2ccccc2)CC1 (stereo unspecified)	inactive: -14.8%	
COC(=O)c1ccc(NC(=O)c2cccc3c2C(=O)N(C2CCCCC2)C3)cc1	inactive: -1.25%	
COC(=O)CC1Oc2ccc(C)cc2-n2cc(-c3ccc(F)cc3)nc21 (stereo unspecified)	inactive: -3.1%	
COc1ccc(N2CCN(C(=O)c3cc(NS(=O)(=O)c4ccc(F)cc4)ccn3)CC2)cc1	inactive: 0.12%	
CCOc1ccc(CCNC(=O)CCN2N=C(c3ccc(OC)cc3)CCC2=O)cc1OCC	inactive: -8.05%	
CCCSCCCNC(=O)c1cc2n(n1)CCCN(Cc1ccc(C)cc1)C2=O	inactive: 0%	
Cc1ccc(C)c(NC(=O)CSc2ncc3c(n2)-c2cc(Cl)ccc2N(Cc2ccccc2F)S3(=O)=O)c1	inactive: -6.9%	
Cc1ccc(C)c(N2CCN(C(=O)CCn3c(=O)[nH]c4ccccc4c3=O)CC2)c1	inactive: -0.799%	
CC1(C)CC(=O)c2cc(-c3nc(-c4ccc(Cl)cc4)cs3)c(=O)n(-c3ccc(F)cc3)c2C1	inactive: 4.02%	
COc1ccc(Cn2ccc3nc(C)c(C(=O)NCc4ccc(C)cc4)cc3c2=O)cc1	inactive: -8.12%	
Cc1cc(Cl)ccc1NC(=O)CCn1nc(C)c2c(C)n(-c3ccccc3)nc2c1=O	inactive: -0.0615%	
Cc1cccc(OCCSc2nc3ccc(NC(=O)COc4ccccc4F)cc3s2)c1	inactive: -7.15%	
COc1ccc(-c2oc3ncn4nc(-c5ccccc5Cl)nc4c3c2-c2ccc(OC)cc2)cc1	inactive: -1.11%	
Cc1ccc(CNC(=O)CSc2nc3n[nH]c(C)c3c(=N)n2-c2cccc(C)c2)cc1	inactive: 2.5%	
COc1ccc(-c2noc(-c3ccc(N4CCC(C)CC4)c([N+](=O)[O-])c3)n2)cc1OC	inactive: -11.1%	
COc1ccc(N(CC(=O)N2CCN(c3ccc(F)cc3)CC2)S(=O)(=O)c2c(C)n[nH]c2C)cc1	inactive: 0.852%	
CCOc1ccc(NC(=O)Cn2cc(S(=O)(=O)N3CCN(c4ccccc4F)CC3)c3ccccc3c2=O)cc1	inactive: -0.0267%	
O=C(NCCc1csc2nc(-c3cccc(F)c3)nn12)c1ccc(Br)o1	inactive: 2.01%	
CC(C)(C)c1ccc(C(=O)NC(Cc2c[nH]c3ccccc23)C(=O)OCC(=O)c2ccc(Cl)cc2)cc1 (stereo unspecified)	inactive: 2.08%	
Cc1ccc(CNC(=O)c2cccc(-n3cnc4cccnc43)c2)cc1	inactive: -8.17%	
CCc1ccc(NC(=O)CCNS(=O)(=O)c2ccc3c(c2)CCCC(=O)N3)cc1	inactive: -8.67%	
